# Measurements as given in ChEMBL document CHEMBL4888484, “Replenishing the malaria drug discovery pipeline: Screening and hit evaluation of the MMV Hit Generation Library 1 (HGL1) against asexual blood stage Plasmodium falciparum ,using a nano luciferase reporter read-out” (2022).
# Hit rate of the full screen: of about 150,000 compounds, about 540 (0.36%) showed an effect of 50% or more. The list shows a part of the results.
# Test system: Plasmodium falciparum
# Test: Primary screen in NF54 nanoGlo assay, in single point, at 2uM, 72h; a lower Z score goes with more inhibition
# Assay type: functional, Erythrocyte
# Settings: timepoint 72 hour
Structure (SMILES),% Inhibition [%],Z score
O=C1CC[C@]2(c3ccccc3)NCCN12,-5,0.93
Cc1nn(C)c(C)c1S(=O)(=O)N[C@@H](C)C(=O)OC(c1ccccc1)c1ccccc1,6,-0.91
COc1ccc(CN2CCN(CCCn3cccn3)C[C@@H]2CCO)c(F)c1,0,0
COC[C@H]1CCN1C(=O)c1onc2c1CCCC2,-3,0.41
C[C@@H](CCNC(=O)c1nc[nH]c1C(F)(F)F)c1ccccc1,-5,0.92
C[C@@H](Cc1ccc(OC(F)(F)F)cc1)C(=O)NCc1cscn1,-1,0.12
COCCOCc1nc(C2CCN(C(=O)Nc3ccccc3F)CC2)no1,4,-0.5
Cc1nc2cc(C(=O)N3CCC[C@H]3c3ccc4c(c3)OCCCO4)ccc2n1C,-5,0.5
O=C(Nc1nccs1)c1cc(NC(=O)c2cccs2)cc(NC(=O)c2cccs2)c1,28,-3.86
Cc1occc1C(=O)N[C@@H](CCO)C1CCOCC1,-16,3.13
CCCn1ncnc1[C@H](C)n1ccnc1-c1cnc(-c2ccco2)nc1,-16,2.81
Cc1cc(=O)cc(C(=O)NC[C@H]2CCCN(C(=O)C(C)C)C2)n1C,-4,0.54
O=C(c1ccsc1)N1CCC[C@H](CCc2noc(-c3ccccn3)n2)C1,-1,0.17
O=C(NC1CCCCCCC1)c1ccc(S(=O)(=O)NC2CC2)cc1,-14,2.64
COC(OC)C(=O)N1CCN(C(=O)C2CC(C)CC(C)(C)C2)CC1 (configuration not stated),-7,0.93
O=S(=O)(Nc1nnc(CCc2ccccc2)o1)c1ccccc1F,-6,0.72
O=C(NCC1CCCC1O)Nc1cccs1 (configuration not stated),0,0.03
Cc1nc(C(C)C)ncc1C(=O)NCCCN(C)c1ccccc1,-15,2.15
COc1ccccc1NC(=O)c1c(C)c(C)n[nH]c1=O,-6,0.76
O=C(NCc1ccc(N2CCOCC2)cc1)[C@H]1CCC(=O)N(C2CC2)C1,-17,2.43
COCc1csc(NS(=O)(=O)c2cc(C)c(C)s2)n1,-5,0.57
Cc1ccc(CN2CCc3c(cc(C(=O)N4CCC(N5CCCCC5)CC4)n3C)C2)cc1,-13,2.28

Structure (SMILES),% Inhibition [%],Z score
O=C(Nc1[nH]c(=O)ncc1F)c1cccc2ccccc12,85,-7.83
COc1cc(C)c(-c2nc3c(cnn3C)[nH]2)c(C)c1C,1,-0.19
CCN(C(=O)c1coc2ccccc12)[C@@H](C)CO,-16,1.91
CCNc1ncc(C(=O)N(CC)Cc2cc(Cl)ccc2OC)cn1,2,-0.29
Cc1c(CC(=O)NC[C@H]2COCCO2)c2c(n1Cc1ccccc1)CCCC2=O,1,-0.17
Cc1nnc(N2CCN(C)[C@@H](CO)C2)nc1C,-6,0.6
CN(C(N)=NCc1cc(Br)c2c(c1)OCO2)C1CC1,-13,1.62
Cc1n[nH]c(C)c1-c1cc(-c2cccnc2)nc(N)c1C#N,-3,0.66
O=C(c1cccc(NS(=O)(=O)c2ccc(F)c(F)c2)c1)N1CCN(c2cccc(C(F)(F)F)c2)CC1,-6,1.19
Cc1cc(Cl)c2oc(C(=O)N3CCC[C@H]3c3nonc3C)c(C)c2c1,-14,1.26
COc1ccc(Cl)cc1[C@@H](O)CNC(=O)c1cc(C)nn1C1CCOCC1,1,-0.17
COCCNc1nc(=O)c2c([nH]1)NC(=O)[C@@H](CC(=O)Nc1ccc(Cl)c(Cl)c1)C2,31,-3.5
O=C(CCC1CCCCC1)N1CCN(C(=O)c2cnn3cccnc23)CC1,-6,0.7
Cc1nccc(O[C@H]2CCN(C(=O)NCc3cccs3)C2)n1,-12,1.87
COc1ccc(CCN2C(=O)C[C@H](c3ccccc3)C2=O)cc1OC,31,-3.47
CC1CN(Cc2ccc(-c3ccn[nH]3)o2)CC[S+]([O-])C1 (configuration not stated),-16,1.61
CC1=C(CCN2C[C@@H]3CC[C@H]2CN(S(=O)(=O)N(C)C)C3)C(C)(C)CCC1,-6,0.96
CC(C)(C)c1cc(C(=O)N2CCCC[C@H]2C(=O)O)no1,0,-0.04
Cc1coc(C(=O)N(Cc2ccccc2)c2ccncc2)c1C,-15,1.48
CC(C)(C)OC(=O)N1CCCC[C@@H]1Cc1cc(C(=O)O)no1,-11,1.43
COCCN(Cc1c(C(C)C)nn(-c2ccccc2)c1Oc1ccccc1F)C(=O)c1ccc(F)cc1,-5,0.78
C=CCN1C[C@@H](C(=O)N2CCCCCCC2)CC1=O,7,-0.92

Structure (SMILES),% Inhibition [%],Z score
O=C(N[C@H]1CCOC1)C(c1ccccc1)c1ccccc1,-2,0.28
Cc1ccc(F)cc1-c1cnn(CC2CC2)c1,-5,0.91
Cc1nc(CNc2ncccc2CO)cs1,-5,0.9
C[C@H](N)c1cccc(Br)c1,-9,0.94
Cc1nc2n(n1)C[C@@H](C(=O)N(C)CCOc1ccc(O)cc1)CC2,4,-0.73
Cc1c[nH]c(CN(C)C(=O)CCc2scnc2C)n1,-11,1.66
CCC(C)C(C)N(C(=O)NCC(F)(F)F)C1CC1 (configuration not stated),-19,2.95
Cn1nccc1-c1ccccc1CN1CC[C@@](O)(C(F)F)C1,-15,1.95
Cc1cc(C)c(S(=O)(=O)N2CCC[C@H](C(=O)N3CCCC3)C2)c(C)c1,-14,1.98
O=C1C[C@@H](c2ccc(C(F)(F)F)cc2)c2c(O)nc(N3CCN(CCO)CC3)nc2N1,30,-4.39
CS(=O)(=O)CCC(=O)N(CCc1c[nH]c2ccccc12)C1CCCCC1,0,-0.01
CC1=NS(=O)(=O)N(CC(=O)NCc2ccc(C)cc2)C=C1c1nc(C)no1,3,-0.32
Clc1ccc(Cn2c(-c3cccs3)nc3ccccc32)c(Cl)c1,-7,0.91
Cc1ccc(C(=O)N[C@H]2CCC23CCOCC3)c(C)c1,10,-1.3
CCN(CC)c1ccc(C(=O)O)cc1N,-1,0.15
Cc1ccc(CC(=O)NC[C@@H](c2ccc(C)o2)N2CCCC2)cn1,7,-0.59
CC(=O)N1CCN(C(=O)Cc2csc(-c3ccc(C)o3)n2)CC1,-11,1.5
CCc1ncc(NS(=O)(=O)c2cnn3c2OCC(C)(C)C3)cn1,2,-0.45
Cc1ccc2c(C3CCN(C(=O)c4ccncc4F)CC3)c[nH]c2c1,0,0
O=C(COCc1cc[nH]c(=O)c1)N[C@@H]1c2ccccc2CC[C@@H]1O,-7,0.95
C[C@H]1CN(CCCc2ccccc2Br)CCS1(=O)=O,-11,0.97
COc1ccc(Cc2nc(-c3ccc4ncn(C(C)C)c4c3)no2)cc1,-9,1.49

Structure (SMILES),% Inhibition [%],Z score
CC1(c2ccc(F)cc2F)NC(=O)N(CCC2CCCO2)C1=O (configuration not stated),-10,1.12
CCCC(=O)N1CCCC1C(=O)N1CCCC1Cc1ccc(C)cc1 (configuration not stated),-7,1.06
COc1ccc(-c2c3c(=O)n(C)c(=O)n(C)c3c3n2C(C)(C)CO[C@H]3c2ccco2)cc1,3,-0.47
Cc1ncc(COC(=O)C2Oc3ccccc3C2C)s1 (configuration not stated),-9,1.27
Cc1nc(N2CC[C@H](N3CCOCC3)C2)ccc1Br,-4,0.69
COc1ccc(NC(=O)c2sc(N(C(C)=O)C3CCCC3)nc2C)c(OC)c1,-4,0.44
O=C(N[C@H]1C[C@H]2OCC[C@@H]12)c1ccc2ncsc2c1,-15,1.49
Cc1nc2ncc(-c3ccc(C(=O)N(C)C[C@H](O)CO)cc3)cc2[nH]1,-8,1.49
O=C(CCC1CCCC1)N1CCC(F)(C(=O)N2CCOCC2)CC1,-4,0.51
CCCCCS(=O)(=O)N(C)Cc1nnc(C)n1C,-1,0.06
COc1ccc2c(NC(=O)Cc3c(C)noc3C)n[nH]c2c1,29,-0.04
Cc1nonc1Cn1cnc(-c2ccccn2)n1,-8,1.22
Cc1ccc(CC(=O)Nc2cccnc2Oc2ccccc2)cc1,-7,0.96
COc1ccc2c(=O)c(C(=O)NCCCc3nnc4ccccn34)c[nH]c2c1,-4,0.46
Cc1cc(C(=O)N(c2cccc(C(F)(F)F)c2)[C@@H](C)C2CC2)n(C)n1,-4,0.45
N=C(N)N=C(N)N(c1ccccc1)c1ccccc1,-16,2.2
O=c1c2c(ncn1Cc1ccc(Cl)c(Cl)c1)CCOC2,-8,1.53
Cc1cc(N2CCN(C(=O)Cc3ccc(F)cc3)CC2)ncn1,-8,1.57
CCOC(=O)N1CCC(NC(=O)c2nnn(-c3ccccc3)n2)CC1,-18,2.6
Cc1nc[nH]c1C(=O)NCc1cccnc1Oc1ccc(F)c(F)c1,-7,1.43
